Test results from PubChem BioAssay (NCATS).
The shares of active, inactive and inconclusive entries below differ from those in the screen. No potency is given beside an inconclusive call; the fits are too rough. Calls of active or inactive are those of the source. Calls come from the whole dose curve; as a rule, active = well fitted cell-killing curve with a large enough effect; inconclusive = small, poorly fitted or top-dose-only effect, or effect the other way; inactive = no such curve, though single readings can be large or run the other way.
Potency is the fitted concentration of half-maximal effect; tags give direction and shape of the fitted curve.

Assay: Viability qHTS for spleen associated tyrosine kinase inhibitor (SYKi) drug resistant MV4-11 cells (AID 1963824); note: nearly all actives have a fitted effect of over 35% in size
Settings: SYKi-resistant MV4-11 viability, CellTiter-Glo, 72 h; series mostly up to 45 µM; viability, % of control: at the top concentration
Text: Department of Medicine, Hematology/Oncology
University Hospital Frankfurt, Germany.
Trials have shown promising clinical activity of the selective SYK inhibitor entospletinib in patients with high expressing HOXA9/MEIS1 acute leukemias. As the development of resistance mechanisms is a common problem in the use of targeted drugs, we performed a chemical library screen to identify drug sensitivities in SYK inhibitor resistant AML cells. […] Glucocorticoids are potent immunosuppressants which work in part by inhibiting the transcription of cytokine genes.
Described herein is a viability screen to look for activity in the SYK inhibitor drug resistant cell line against four NCATS compound libraries (MIPE 5.0, NPC, NPACT, and Kinase) totaling 11372 compounds. Active hits were reacquired for confirmation and further secondary assay testing.
SEQUENCE No. (e.g., 1, 2, 3, etc.); […] (e.g., Cells, Incubation, Reagent, etc.); VALUE; DESCRIPTION.
1; Media; 2uL; white, solid-bottom Corning assay plate.
2; Compounds; 23nL; Echo acoustic dispenser.
3; Cell; 5uL; 500 cells per well.
4: Incubation; 72hr; 37 C, 5% CO2, 95% humidity.
5; Reagent; 3uL; CellTiter-Glo reagent (Promega).
6; Incubation; 10min; room temperature.
7; Detection; Luminescence; ViewLux plate reader (PerkinElmer).
NOTES (numbers refer to Sequence numbers above
1. Quantitative high-throughput screening (qHTS) of small molecule compounds was conducted on drug resistant SYKi MV4-11 cell line.
2. Twenty-three nanoliter of small molecule compounds were added to each assay plates using the Echo acoustic dispenser (Beckman Coulter).
3. Cells were seeded into the assay plates at a final density of 500 cells in 5uL of media per well using the Multidrop Combi dispenser.
4. Plates were covered with stainless steel gasketed lids and incubated for 72 hours at standard cell culture conditions.
5. Viability was assessed by adding 3uL of CellTiter-Glo detection reagent (Promega).
6. Plates were covered with gasket lids and incubated for 10 minutes at room temperature.
7. Luminescence was measured on a ViewLux plate reader (PerkinElmer).
In the case of CO[C@H]1C[C@H](O[C@H]2CC[C@@]3(C)C(=CCC4C3CC[C@]3(C)[C@@H](C5=CC(=O)OC5)CC[C@]43O)C2)O[C@@H](C)[C@@H]1O[C@@H]1O[C@H](CO[C@@H]2O[C@H](CO)[C@@H](O)[C@H](O)[C@H]2O)[C@@H](O)[C@H](O)[C@H]1O (stereo not given in full), the Potency is reported as inconclusive [cytotoxic, single point]. For CO[C@H]1CCC(O[C@H]2C[C@H]([C@]3(C)CC[C@]4(C[C@H](O)[C@@H](C)[C@@H]([C@@H](C)/C=C(\C)C(=O)[C@H](C)C[C@H](C)C(=O)O)O4)O3)O[C@]3(O[C@@H]([C@H]4O[C@@](O)(CO)[C@H](C)C[C@@H]4C)C[C@@H]3C)[C@@H]2C)O[C@@H]1C (stereo not given in full), the Potency was active: 0.209 µM. For CCN(CC)CCOC(=O)C(O)(c1ccccc1)c1ccccc1, the “viability, % of control” value was inactive: 91.9%. In the case of CC(=O)OC[C@]12C[C@H](OC(C)=O)C(C)=C[C@H]1O[C@@H]1[C@H](O)[C@@H](O)[C@@]2(C)[C@]12CO2, the “viability, % of control” value is reported as inactive: 6.58%. In the case of CCCN1CCC[C@@H]2Cc3[nH]ncc3C[C@H]21, the Potency is reported as inconclusive [cytotoxic, partial curve]. In the case of COC(=O)C1=COC(C)C2CN3CCC4(C(=O)Nc5ccccc54)C3CC12 (stereo not given), the Potency is reported as active: 14.3 µM. With Cc1ncc(CNC(=O)N(CCCl)N=O)c(N)n1 the “viability, % of control” value was inactive: 109%. In the case of COc1ccc2[nH]cc(CCN(C(C)C)C(C)C)c2c1, the Potency is reported as inconclusive [cytotoxic, single point]. In the case of CC(CC(C(N)=O)(c1ccccc1)c1ccccc1)N(C)C (stereo not given), the “viability, % of control” value is reported as inactive: 90%. For C[C@]12CC[C@H](O)C[C@@H]1CC[C@@H]1[C@@H]2CC[C@]2(C)C(=O)CC[C@@H]12, the Potency was inconclusive [cytotoxic, partial curve]. With CCCN(CCC)CCc1ccc(OC)c(OCCc2ccccc2)c1 the Potency was inconclusive [cytotoxic, partial curve, poor fit]. For COc1cc(C)[nH]c(=O)c1CNC(=O)c1c(C)n([C@H](C)C2CCOCC2)c2ccccc12, the Potency was inconclusive [cytotoxic, single point]. With CO/C1=C\C(C)=C\[C@@H](C)[C@@H](O)[C@@H](C)C/C(C)=C/C=C/[C@H](OC)[C@@H]([C@@H](C)[C@@H](O)[C@H](C)[C@@]2(O)C[C@@H](O)[C@H](C)[C@@H](C(C)C)O2)OC1=O the Potency was active: 0.0172 µM. In the case of O=C(NCCN1CCC2(CC1)C(=O)NCN2c1cccc(F)c1)c1ccc(F)c(F)c1, the Potency is reported as inconclusive [cytotoxic, partial curve]. In the case of C1CN2CCC1CC2, the “viability, % of control” value is reported as inactive: 97.8%. In the case of C=C1[C@@H](C)[C@H]2[C@H](Cc3ccccc3)NC(=O)[C@]23[C@H](OC(C)=O)/C=C/[C@](C)(O)C(=O)[C@@H](C)C/C=C/[C@H]3[C@@H]1O, the Potency is reported as active: 0.731 µM. With C=C(C)[C@H]1O[C@H]2CC[C@@]3(C)[C@@](O)(CC[C@H]4[C@@H]5OC(C)(C)[C@H]6C[C@@H]7C(=C)Cc8c(Cl)cc9[nH]c(c5c9c8[C@@]76O)[C@@]43C)[C@]23O[C@@H]3[C@H]1O the Potency was inconclusive [cytotoxic, single point]. For CCN(CCO)CCn1c(Cc2ccccc2)nc2c1c(=O)n(C)c(=O)n2C, the Potency was inconclusive [cytotoxic, full curve, poor fit]. For CCCC(C)C1(CC)C(=O)N=C(S)NC1=O (stereo not given), the Potency was inconclusive [cytotoxic, partial curve, poor fit]. In the case of CC1(C)C(=O)N(c2ccc(C#N)c(C(F)(F)F)c2)C(=S)N1c1ccc(C(N)=O)c(F)c1, the Potency is reported as inconclusive [cytotoxic, partial curve, poor fit]. In the case of CC1=C2C[C@H]3[C@@H](CC=C4C[C@@H](O)CC[C@@]43C)[C@@H]2CC[C@]12O[C@@H]1C[C@H](C)CN[C@H]1[C@H]2C, the Potency is reported as active: 14.8 µM. For CCC1(O)CCC2C3CCC4=CC(=O)CCC4C3CCC21CC (stereo not given), the Potency was active: 14.6 µM. For CN[C@H]1[C@H](O)[C@H](O[C@@H]2[C@@H](O)[C@H](O[C@H]3O[C@H]([C@H](C)O)[C@@H](O)[C@H](O)[C@H]3N)[C@@H](N)C[C@H]2N)OC[C@@]1(C)O, the “viability, % of control” value was inactive: 117%. In the case of O=C(N[C@@H]1N=C(c2ccccc2F)c2cccc3c2N(CC3)C1=O)c1cc2ccccc2[nH]1, the Potency is reported as inconclusive [cytotoxic, partial curve, poor fit]. With CC1=C2[C@H]3OC(=O)[C@@H](C)[C@@H]3CC[C@@]2(C)C=CC1=O the Potency was inconclusive [cytotoxic, partial curve, poor fit]. For CC(C)[C@@H](CN1CC[C@@](C)(c2cccc(O)c2)[C@@H](C)C1)NC(=O)[C@H]1Cc2ccc(O)cc2CN1, the Potency was active: 16.4 µM. In the case of CCN1C[C@]2(OC(=O)c3ccccc3NC(C)=O)CC[C@H](OC)[C@@]34[C@H]5CC6[C@@H](OC)C[C@](O)(C(C[C@@H]23)[C@@H]14)[C@@]5(O)[C@@H]6OC, the Potency is reported as inconclusive [cytotoxic, full curve, poor fit]. For COc1ccc2c(c1)c(CCN(C)C)cn2S(=O)(=O)c1ccccc1, the Potency was inconclusive [cytotoxic, partial curve]. For CC1=CC2OC3CC(O)[C@](C)([C@@]2(C)C(O)C1=O)[C@]31CO1 (stereo not given in full), the Potency was active: 1.84 µM. In the case of C[C@H](CN1CCOCC1)C(C(=O)N1CCCC1)(c1ccccc1)c1ccccc1, the Potency is reported as inconclusive [cytotoxic, partial curve, poor fit]. For CCCCCCCCC(=O)NCc1ccc(O)c(OC)c1, the “viability, % of control” value was inactive: 13.6%. In the case of CCc1c(C(=O)C(N)=O)c2c(OCC(=O)O)cccc2n1Cc1ccccc1, the “viability, % of control” value is reported as inactive: 85.5%. In the case of CCOC(C(=O)OCCN(C)C)(c1ccccc1)c1ccccc1, the Potency is reported as inconclusive [cytotoxic, single point]. With COc1ccccc1CN[C@H]1C2CCN(CC2)[C@H]1C(c1ccccc1)c1ccccc1 the Potency was inconclusive [cytotoxic, partial curve, poor fit]. In the case of CCN[C@H](C)Cc1cccc(C(F)(F)F)c1, the Potency is reported as inconclusive [rising, full curve, poor fit]. In the case of C[C@]12CC[C@H](O)C[C@H]1CC[C@@H]1[C@@H]2[C@H](O)C[C@]2(C)[C@@H](c3ccc(=O)oc3)CC[C@]12O, the Potency is reported as active: 0.0146 µM. With C[C@]12CC[C@@H](O)C[C@H]1CC[C@@H]1[C@@H]2CC[C@]2(C)C(=O)CC[C@@H]12 the Potency was inconclusive [cytotoxic, partial curve]. With Oc1ccc2c3c1O[C@H]1[C@H](N(CCCl)CCCl)CC[C@@]4(O)[C@@H](C2)N(CC2CC2)CC[C@]314 the viability, % of control was inactive: 83.4% [at 9.25 µM]. For C[C@]12CC[C@H]3[C@@H](CCC4=CC(=O)CC[C@@]43C)[C@H]1CC[C@H]2OC(=O)CCC1CCCC1, the Potency was inconclusive [cytotoxic, partial curve]. For COc1ccn(C)c(=O)c1C#N, the Potency was inconclusive [cytotoxic, partial curve, poor fit].
